Measured values as given in the supplement of paper PMC12217912.
This is one part of the list. The full chains were built here from the parent and the listed change. Inactive controls read about 0.05.

B1: TEV protease; numbered along this chain (parent)
chain: MGESLFKGPRDYNPISSSICHLTNESDGHTTSLYGIGFGPFIITNKHLFRRNNGTLVVQSLHGVFKVKDTTTLQQHLVDGRDMIIIRMPKDFPPFPQKLKFREPQREERICLVTTNFQTKSMSSMVSDTSCTFPSGDGIFWKHWIQTKDGQCGSPLVSTRDGFIVGIHSASNFTNTNNYFTSVPKNFMELLTNQEAQQWVSGWRLNADSVLWGGHKVFMVKPEEPFQPVKEATQL

Variants of: B1
Assay: raw area under fraction-flipped curve 0-4 h after induction (AUC4h, not background-subtracted), DNA-recorder readout of cleavage of the substrate (dimensionless); higher = more cleavage of the substrate by the protease variant
Conditions: temperature: 34 °C; time window: 0-4 h after rhamnose induction
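Further: Bxb1 expression induced with 0.2% (w/v) L-rhamnose at OD600 near 0.5, cultures sampled hourly, flipped fraction per protease–substrate barcode pair counted by paired-end Illumina sequencing.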

Row | Variant | area with substrate ENLYFQC | area with substrate ENLYFQF | area with substrate ENLYFQG | area with substrate ENLYFQH | area with substrate ENLYFQI | area with substrate ENLYFQK | area with substrate ENLYFQL | area with substrate ENLYFQM | area with substrate ENLYFQN | area with substrate ENLYFQP | area with substrate ENLYFQS | area with substrate ENLYFQT | area with substrate ENLYFQW | area with substrate ENLYFQY | area with substrate ENLYFQQ | area with substrate ENLYFQR | area with substrate ENLYFQV | area with substrate ENLYFQD | area with substrate ENLYFQE
1 | T181M | 0.069 | 0.0588 | 0.0739 | 0.0677 | 0.0562 | 0.0688 | 0.0494 | 0.0603 | 0.0647 | 0.0465 | 0.0733 | 0.0506 | 0.0688 | 0.0292 |  |  |  |  | 
2 | T181L | 0.0605 |  | 0.0703 |  |  |  | 0.0595 |  | 0.0561 | 0.0521 | 0.0603 | 0.0604 | 0.0548 |  | 0.0155 | 0.0603 |  |  | 
3 | P225I | 0.0965 |  | 0.0929 |  |  | 0.0635 |  | 0.0803 |  | 0.0658 | 0.093 |  |  |  |  |  |  |  | 
4 | G63Y |  | 0.0684 | 0.0809 | 0.0669 | 0.0502 | 0.0674 |  | 0.0746 | 0.0685 |  | 0.0833 | 0.051 | 0.0656 |  |  | 0.0576 |  |  | 
5 | W199H |  |  | 0.0591 | 0.047 | 0.0639 | 0.0725 | 0.056 | 0.0646 | 0.0741 | 0.0624 | 0.0635 | 0.0608 | 0.0496 |  |  | 0.0569 |  |  | 
6 | P222S | 0.0882 |  |  |  |  | 0.0572 | 0.0551 | 0.0677 | 0.0709 | 0.0494 | 0.0925 | 0.0744 | 0.0503 |  | 0.0573 | 0.0619 | 0.064 |  | 
7 | I167T | 0.0848 |  | 0.086 | 0.0647 | 0.06 | 0.0563 | 0.0585 | 0.0557 | 0.0758 | 0.0623 | 0.0695 | 0.0573 |  |  |  | 0.0611 | 0.0536 | 0.0561 | 
8 | C111L |  |  | 0.106 | 0.085 |  | 0.0579 | 0.0618 | 0.0958 | 0.07 |  | 0.108 | 0.0643 | 0.0665 |  |  | 0.0574 | 0.0591 |  | 
9 | K230V | 0.101 | 0.0688 | 0.0905 | 0.0926 | 0.0838 | 0.0587 | 0.0714 | 0.0795 | 0.0718 | 0.0538 | 0.101 | 0.0719 | 0.0587 | 0.0727 |  | 0.0675 |  | 0.0785 | 
10 | K230E | 0.123 |  | 0.096 | 0.106 |  | 0.0632 |  | 0.0828 | 0.081 |  | 0.0939 | 0.0688 | 0.0589 | 0.0591 | 0.0771 | 0.0672 | 0.0416 | 0.0902 | 
11 | C20R |  | 0.0316 | 0.0513 | 0.0532 | 0.0414 | 0.0461 | 0.0545 | 0.0447 | 0.0524 | 0.0364 | 0.0492 | 0.0283 | 0.0552 | 0.0434 |  | 0.0352 | 0.0547 | 0.0438 | 0.0546
12 | C20M |  | 0.0469 |  |  |  | 0.0757 | 0.0453 | 0.1 | 0.0799 |  | 0.0929 | 0.0581 | 0.0688 | 0.0616 |  | 0.0568 | 0.0572 | 0.0579 | 
13 | Q194R |  |  |  | 0.0799 | 0.0706 |  | 0.0672 | 0.0784 | 0.0746 | 0.0635 | 0.103 | 0.0795 |  | 0.0835 |  | 0.0517 | 0.067 |  | 
14 | E231T | 0.101 |  | 0.0942 |  | 0.0565 | 0.0529 | 0.0586 | 0.104 |  | 0.0617 | 0.0958 | 0.0761 | 0.0679 |  | 0.065 | 0.0778 | 0.0659 | 0.0703 | 0.0617
15 | E231H |  |  | 0.104 |  | 0.0651 | 0.0676 | 0.0694 |  | 0.0775 |  | 0.0974 | 0.0626 | 0.0637 |  |  | 0.0571 |  |  | 
16 | M219C | 0.0709 |  | 0.0944 |  | 0.07 |  | 0.0585 | 0.0963 |  |  | 0.102 |  | 0.0651 |  |  | 0.055 | 0.0613 |  | 
17 | V220I | 0.0994 |  |  |  | 0.0965 |  |  |  | 0.0929 | 0.0536 | 0.104 | 0.0822 |  | 0.0644 |  |  | 0.0659 |  | 
18 | V217A | 0.0931 |  | 0.0985 |  |  |  |  | 0.0341 | 0.082 |  | 0.0766 |  | 0.0613 |  |  |  |  |  | 
19 | T71W |  |  |  | 0.0581 | 0.0564 |  | 0.0675 |  | 0.0711 |  | 0.0831 | 0.0718 | 0.0644 |  | 0.0588 | 0.051 | 0.0842 |  | 
20 | G213F | 0.0543 |  | 0.0754 |  |  | 0.0632 | 0.0727 | 0.0565 | 0.0496 |  | 0.062 |  |  | 0.0605 |  |  | 0.0509 |  | 
